Results from PubChem BioAssay AID540267 (National Center for Advancing Translational Sciences (NCATS), 2011).
The campaign covered roughly 340,000 compounds. About 530 (0.16%) were called active. This list was built around the results that the source calls inconclusive (neither active nor inactive); the mix of calls is not that of the screen. Rule as the data show it: active = activity change below about -80%; inconclusive = between about -30% and that limit; inactive = weaker than that.

Assay: Small Molecules that selectively kill Giardia lamblia: qHTS;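 also: parasites exposed to compound for two days anaerobically before the ATP read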
Conditions: Giardia lamblia trophozoite viability; at 7.66 µM; stronger effect = lower value
How it was run: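 Trophozoites 100 cells/well + cpd; 48 hrs, 37 deg C, anaerobic. ATPLite 1-Step added, 15-30 min RT, luminescence read (ATP-based viability).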
% is scaled to controls: 0 for no effect and ±100 for the full control effect.

Compound | activity change
CCOC(=O)N1CCN(c2ncnc3c2[nH]c2ccc(F)cc23)CC1 | inactive: 3.48%
C#CCOCCOCCOCCNc1nc(N2CCN(C(=O)Cn3cc(CCO)nn3)CC2)nc(N2CCN(C(=O)Cn3cc(CCCCN)nn3)CC2)n1 | inconclusive: -30.3% [inhibitor]
S=C(c1ccc(-c2ccc(Cl)c(Cl)c2)o1)N1CCOCC1 | inactive: -13.1%
Cc1ccc(C)c(NC(=S)Nc2ncccc2C)c1 | inactive: -9.18%
CC(C)Cn1nc(C(=O)Nc2cccc(C(=O)NC3CC3)c2)c2ccccc2c1=O | inconclusive: -34.3% [inhibitor]
CCC1CCCCN1CCCNC(=O)c1cn(CC)c2ccc(S(=O)(=O)N3CCc4ccccc4C3)cc2c1=O (configuration not stated) | inactive: 0.495%
CCSc1nnc(NC(=O)c2ccc3c(c2)OCO3)s1 | inconclusive: -34.8% [inhibitor]
COc1ccc(C2C3=C(CCCC3=O)NC3=C2C(=O)c2ccccc23)cc1 (configuration not stated) | inconclusive: -31.2% [inhibitor]
COc1ccc(C(=O)Oc2ccc(-c3nnco3)cc2)cc1S(=O)(=O)N1CCOCC1 | inconclusive: -30.5% [inhibitor]
O=[N+]([O-])c1ccccc1/C=C/C=N/n1c(-c2ccccc2F)n[nH]c1=S | inactive: 1.5%
COc1ccc2cc(C(=O)c3ccccc3)c(=O)oc2c1 | inconclusive: -30.6% [inhibitor]
Cc1c(C(=O)O)[nH]c2c1C(=O)CC(c1ccc(C(C)(C)C)cc1)C2 (configuration not stated) | inconclusive: -33.8% [inhibitor]
Cc1ccc(CN=c2c([N+](=O)[O-])nn(-c3cccc(C)c3)n2O)cc1 | active: -83.4%
O=[N+]([O-])c1cccc(-c2noc(-c3cccs3)n2)c1 | inconclusive: -37% [inhibitor]
COc1ccc(Oc2c(C=O)c3ccccc3n2C)cc1 | inactive: -7.11%
COC(=O)c1sc(SC)nc1N | inconclusive: -33.9% [inhibitor]
CCOCCCNC(=O)c1c(-c2ccccc2)noc1C | inconclusive: -32.3% [inhibitor]
CN(Cc1nc(-c2ccccc2)no1)C(=O)c1ccc2c(c1)OCO2 | inactive: -11.5%
O=C(c1ccc([N+](=O)[O-])o1)N1CCCCCC1 | active: -90.9%
CSc1ccccc1NC(=O)c1ccccc1C | inconclusive: -37.5% [inhibitor]
COc1ccc(OC(C)C(=O)N2CCOCC2)cc1 (configuration not stated) | inconclusive: -31.5% [inhibitor]
Cc1cc([N+](=O)[O-])nn1Cn1nc([N+](=O)[O-])cc1C | inconclusive: -30.7% [inhibitor]
